Test [1] has as its target T1, X. laevis CEP97 WT, exogenous, tag not named for the experiment (X. laevis) (UniProt Q6GPJ8).
T1 sequence: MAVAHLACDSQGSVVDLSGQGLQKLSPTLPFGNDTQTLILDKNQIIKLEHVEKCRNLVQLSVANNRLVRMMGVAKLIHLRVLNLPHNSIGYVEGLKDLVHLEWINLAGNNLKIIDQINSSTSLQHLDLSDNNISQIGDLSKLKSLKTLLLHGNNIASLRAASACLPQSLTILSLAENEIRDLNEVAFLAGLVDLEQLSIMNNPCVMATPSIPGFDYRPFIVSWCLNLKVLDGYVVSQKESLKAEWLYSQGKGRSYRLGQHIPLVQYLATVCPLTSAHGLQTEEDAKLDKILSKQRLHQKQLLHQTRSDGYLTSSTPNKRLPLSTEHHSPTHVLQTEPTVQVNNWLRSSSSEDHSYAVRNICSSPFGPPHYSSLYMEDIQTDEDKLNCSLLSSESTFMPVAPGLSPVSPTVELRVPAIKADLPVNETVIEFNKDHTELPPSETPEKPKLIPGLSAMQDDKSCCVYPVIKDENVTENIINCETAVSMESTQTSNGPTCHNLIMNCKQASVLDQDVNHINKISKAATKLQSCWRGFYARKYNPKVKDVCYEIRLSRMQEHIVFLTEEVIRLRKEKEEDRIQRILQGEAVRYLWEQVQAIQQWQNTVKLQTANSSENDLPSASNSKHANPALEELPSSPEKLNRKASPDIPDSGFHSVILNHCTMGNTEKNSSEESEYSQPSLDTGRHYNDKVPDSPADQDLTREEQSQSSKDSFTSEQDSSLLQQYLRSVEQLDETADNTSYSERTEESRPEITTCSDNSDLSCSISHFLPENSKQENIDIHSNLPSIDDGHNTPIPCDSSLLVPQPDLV
The test is described as follows: co-IP; Xenopus embryos injected with mRNAs at the one-cell stage, harvested at stages 11–12, lysed in TNSG buffer (50 mM Tris-HCl pH 7.4, 150 mM NaCl, 1% NP-40, 10% glycerol) with protease and phosphatase inhibitors; anti-V5, anti-Flag M2 or anti-HA agarose, 6–8 h at 4°C; reciprocal.

The target in test [2] is T2, X. laevis CEP97, V5-tagged (X. laevis) (UniProt Q6GPJ8).
T2 sequence: T1 sequence
The test is described as above.

Test [3] addresses X. laevis Dyrk1a, Flag-tagged (X. laevis) (UniProt Q2TAE3). Described as above.
For test [4], the target named is T3, human CEP97-HA WT (human) (UniProt Q8IW35).
T3 sequence: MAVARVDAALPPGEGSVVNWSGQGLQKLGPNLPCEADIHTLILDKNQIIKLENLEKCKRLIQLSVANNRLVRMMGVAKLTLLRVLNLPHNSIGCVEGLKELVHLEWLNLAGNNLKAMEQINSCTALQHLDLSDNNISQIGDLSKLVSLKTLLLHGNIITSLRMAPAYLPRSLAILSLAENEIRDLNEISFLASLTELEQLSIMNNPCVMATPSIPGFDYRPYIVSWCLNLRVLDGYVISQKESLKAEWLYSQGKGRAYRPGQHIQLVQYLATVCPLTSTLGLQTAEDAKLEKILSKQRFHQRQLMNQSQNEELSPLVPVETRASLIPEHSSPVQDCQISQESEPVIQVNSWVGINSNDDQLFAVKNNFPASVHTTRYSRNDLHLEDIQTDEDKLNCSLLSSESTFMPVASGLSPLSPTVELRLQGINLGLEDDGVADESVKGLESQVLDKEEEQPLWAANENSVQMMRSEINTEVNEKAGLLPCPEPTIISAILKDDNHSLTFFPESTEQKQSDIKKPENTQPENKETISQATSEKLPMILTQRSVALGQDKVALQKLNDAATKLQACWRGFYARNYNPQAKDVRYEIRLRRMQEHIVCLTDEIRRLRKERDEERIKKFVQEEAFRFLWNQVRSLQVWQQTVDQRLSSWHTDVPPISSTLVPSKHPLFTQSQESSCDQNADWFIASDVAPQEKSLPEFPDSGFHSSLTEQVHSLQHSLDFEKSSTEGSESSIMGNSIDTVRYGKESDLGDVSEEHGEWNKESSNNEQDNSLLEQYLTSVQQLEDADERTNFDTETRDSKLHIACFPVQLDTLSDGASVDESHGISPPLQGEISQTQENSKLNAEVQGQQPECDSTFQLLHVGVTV
The test is described as follows: co-IP; HEK293T cells transfected with human CEP97-HA and hCdc20B-Flag or hSpag5-Flag; reciprocal co-IPs.

Test [5] deals with T4, human CEP97-HA Δ577–610 (human) (UniProt Q8IW35).
T4 sequence: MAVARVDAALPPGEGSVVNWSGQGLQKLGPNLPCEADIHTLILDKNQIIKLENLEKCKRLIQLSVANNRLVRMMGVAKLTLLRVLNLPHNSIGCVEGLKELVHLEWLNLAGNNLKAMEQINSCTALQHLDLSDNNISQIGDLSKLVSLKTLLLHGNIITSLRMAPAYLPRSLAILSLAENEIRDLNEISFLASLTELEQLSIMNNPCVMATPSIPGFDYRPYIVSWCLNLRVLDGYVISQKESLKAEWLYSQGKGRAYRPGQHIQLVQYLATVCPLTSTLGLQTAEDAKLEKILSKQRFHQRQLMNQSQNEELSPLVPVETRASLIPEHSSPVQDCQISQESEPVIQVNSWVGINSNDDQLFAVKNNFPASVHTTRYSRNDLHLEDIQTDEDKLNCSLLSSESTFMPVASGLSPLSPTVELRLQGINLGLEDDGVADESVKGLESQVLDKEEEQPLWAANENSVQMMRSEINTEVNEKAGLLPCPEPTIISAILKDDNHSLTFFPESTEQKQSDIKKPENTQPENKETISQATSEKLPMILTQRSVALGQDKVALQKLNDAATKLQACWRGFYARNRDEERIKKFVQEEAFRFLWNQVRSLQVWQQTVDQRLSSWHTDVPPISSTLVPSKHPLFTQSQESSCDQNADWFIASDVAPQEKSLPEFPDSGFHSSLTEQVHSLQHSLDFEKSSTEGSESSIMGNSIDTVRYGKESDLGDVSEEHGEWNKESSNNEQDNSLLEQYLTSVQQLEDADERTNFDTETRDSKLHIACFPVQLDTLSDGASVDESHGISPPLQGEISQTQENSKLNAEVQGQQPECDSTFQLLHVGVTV
The test is described as above.

These are yes or no findings as the source states them, for the method shown. In cells and extracts the contact can be indirect. Some entries that bind do so weakly or less than the wild type. Where a sequence is shown, tags or fusion partners need not be part of it.

For the molecule “X. laevis Dyrk1a kinase-dead form (K180R) (from UniProt Q2TAE3 1-750) (enzyme)”, the binding result in test [1] is listed as “binds”. As to “X. laevis Dyrk1a, Flag-tagged (from UniProt Q2TAE3 1-750) (enzyme)”, the binding entry in test [2] is “binds”.

B1: X. laevis CEP97, V5-tagged (protein, UniProt Q6GPJ8 1-807)
chain: T1 sequence
In the case of B1, the binding result in test [3] is “binds”.

B2: human Cdc20B-Flag (protein, UniProt Q86Y33 1-519)
chain: MEWKLERTAPRRVRTEEEMLWESIMRVLSKDLKQKRSQDSANVLDSVNATYSDFKSNFAKRLSAEVPVASSPITTRWQQSQTRALSSDSFGEEQSTTYLPEASGSVLKTPPEKETLTLGSRKEQLKTPSKGISETSNSALHFCKAPHAMDRDWKESVASKGQKCLKQLFVTQNVVQQANGKMQLCEQSECVWKGCKDGVRDESFHLKSSGDINDSILQPEVKIHITGLRNDYYLNILDWSFQNLVAIALGSAVYIWNGENHNGIENIDLSLTCNYISSVSWIKEGTCLAVGTSEGEVQLWDVVTKKRLRNMLGHLSVVGALSWNHFILSSGSRLGRVYHHDVRVAQHHVGTLRHKQAVCALKWSPDGRLLSSGCSDGLLTIWPHDPGASAQGQPLKVITQSTAVKAMDWCPWQSGVLAIGGGMKDGRLHILDINAGKSIQTPSTNSQICSLIWLPKTKEIATGQGTPKNDVTVWTCPTVSRSGGFFGHRGRVLHLSLSPDQTRVFSAAADGTASVWNCY
In the case of B2, the binding result is “binds” in test [4] and “no binding” in test [5].

B3: human Spag5-Flag (protein, UniProt Q96R06 1-1193)
chain: MWRVKKLSLSLSPSPQTGKPSMRTPLRELTLQPGALTNSGKRSPACSSLTPSLCKLGLQEGSNNSSPVDFVNNKRTDLSSEHFSHSSKWLETCQHESDEQPLDPIPQISSTPKTSEEAVDPLGNYMVKTIVLVPSPLGQQQDMIFEARLDTMAETNSISLNGPLRTDDLVREEVAPCMGDRFSEVAAVSEKPIFQESPSHLLEESPPNPCSEQLHCSKESLSSRTEAVREDLVPSESNAFLPSSVLWLSPSTALAADFRVNHVDPEEEIVEHGAMEEREMRFPTHPKESETEDQALVSSVEDILSTCLTPNLVEMESQEAPGPAVEDVGRILGSDTESWMSPLAWLEKGVNTSVMLENLRQSLSLPSMLRDAAIGTTPFSTCSVGTWFTPSAPQEKSTNTSQTGLVGTKHSTSETEQLLCGRPPDLTALSRHDLEDNLLSSLVILEVLSRQLRDWKSQLAVPHPETQDSSTQTDTSHSGITNKLQHLKESHEMGQALQQARNVMQSWVLISKELISLLHLSLLHLEEDKTTVSQESRRAETLVCCCFDLLKKLRAKLQSLKAEREEARHREEMALRGKDAAEIVLEAFCAHASQRISQLEQDLASMREFRGLLKDAQTQLVGLHAKQEELVQQTVSLTSTLQQDWRSMQLDYTTWTALLSRSRQLTEKLTVKSQQALQERDVAIEEKQEVSRVLEQVSAQLEECKGQTEQLELENSRLATDLRAQLQILANMDSQLKELQSQHTHCAQDLAMKDELLCQLTQSNEEQAAQWQKEEMALKHMQAELQQQQAVLAKEVRDLKETLEFADQENQVAHLELGQVECQLKTTLEVLRERSLQCENLKDTVENLTAKLASTIADNQEQDLEKTRQYSQKLGLLTEQLQSLTLFLQTKLKEKTEQETLLLSTACPPTQEHPLPNDRTFLGSILTAVADEEPESTPVPLLGSDKSAFTRVASMVSLQPAETPGMEESLAEMSIMTTELQSLCSLLQESKEEAIRTLQRKICELQARLQAQEEQHQEVQKAKEADIEKLNQALCLRYKNEKELQEVIQQQNEKILEQIDKSGELISLREEVTHLTRSLRRAETETKVLQEALAGQLDSNCQPMATNWIQEKVWLSQEVDKLRVMFLEMKNEKEKLMIKFQSHRNILEENLRRSDKELEKLDDIVQHIYKTLLSIPEVVRGCKELQGLLEFLS
Consider B3, for which the binding entry in test [4] was “binds”; in test [5] it was “no binding”.
